Source: PubChem BioAssay AID463173 (ICCB-Longwood Screening Facility, Harvard Medical School, 2010)
The campaign covered roughly 52,000 compounds. About 1,700 (3.3%) were called active. Rule as the data show it: active = survival mostly below about 52% (no sharp cut-off); inactive = mostly above about 56%. The list shows a part of the results.

Test system: Wild type
Experiment: S. aureus survival, RN4220 and DeltatarO strains – OD600, teichoic acid synthesis inhibitors, primary screen (AID 463173)
Details: S. aureus RN4220 wild type/DeltatarO growth, OD600, 18 h, hits give low values, screened at 18.75 µg/mL (by protocol)

SMILES	survival
O=C(CSc1nc(=O)n(CCN2CCOCC2)c2c1CCC2)Nc1ccccc1	inactive: 83%
COc1ccc(C(=O)Nc2nnc(S(=O)(=O)N(CC(C)C)c3ccc(C)cc3)s2)cc1OC	inactive: 69%
CNC(=S)NC1CC2CCCC(C1)N2Cc1ccco1 (centres undefined)	inactive: 108%
O=C(Nc1ccc(S(=O)(=O)Nc2ncccn2)cc1)c1ccccc1Cl	inactive: 77%
Cc1ccc2c(c1)N(C(=O)CCC(=O)NCc1ccccc1Cl)CC(C)O2 (centres undefined)	inactive: 88%
O=C1S/C(=C/c2ccc3c(c2)OCO3)C(=O)N1CN1CCCCC1	inactive: 135%
O=C(Nc1cc(C(F)(F)F)ccc1Cl)c1cc(-c2ccc3c(c2)OCCO3)on1	inactive: 107%
COC(=O)c1cccnc1-n1c(=O)c2cccnc2n(CC(=O)Nc2ccc(C)cc2C)c1=O	inactive: 71%
CC(=O)c1ccc(NC(=O)COc2ccccc2-c2nc(-c3cccc(C)c3)no2)cc1	inactive: 86%
CC(NC(=O)Cn1c(=O)oc2cc(S(=O)(=O)NCc3ccccc3)ccc21)c1ccccc1 (centres undefined)	inactive: 91%
Cc1ccccc1Nc1nc(-c2cccc(Cl)c2)c2c(n1)-c1ccccc1OC2	inactive: 86%
COc1ccc(NC(=O)CSc2nnc(NC(=O)Nc3ccccc3)s2)cc1OC	inactive: 75%
COc1ccc(-c2nn3c(-c4ccccc4C)nnc3c3ccccc23)cc1	active: -3%
CN(C(=O)Cn1cc(S(=O)(=O)Cc2ccccc2Cl)c2ccccc21)c1ccccc1	inactive: 146%
CCOCCCNc1ncnc2onc(C)c12	inactive: 127%
Cc1ccc(Cl)cc1N1CCN(S(=O)(=O)c2ccc3c(c2)CC(C)N3C(=O)C2CCC2)CC1 (centres undefined)	inactive: 136%
Cc1cccc(NC(=O)Nc2nnc(N(C)Cc3ccccc3)s2)c1	inactive: 106%
CC(=O)c1ccc(NC(=O)c2sc(-n3nc(C)c(Cc4ccccc4)c3C)nc2C)cc1	inactive: 91%
CNC(=O)C1CC(=O)N(Cc2ccc(F)cc2)C(=Nc2ccc(F)cc2)S1 (centres undefined)	inactive: 111%
Cn1c(=O)c2c(ncn2CC(=O)Nc2cccc(Cl)c2Cl)n(C)c1=O	inactive: 84%
CCOC(=O)c1cnc(SCC)[nH]c1=O	inactive: 98%
COc1cccc(Cn2c(CNC(=O)c3cc([N+](=O)[O-])ccc3Cl)nc3cccnc32)c1	inactive: 128%
Cc1ccccc1C(=O)NC1(C(F)(F)F)C(=O)Nc2c1c(=O)[nH]c(=O)n2-c1ccc(F)cc1 (centres undefined)	inactive: 134%

SMILES	survival
CCN(Cc1ccccc1)Cc1c(O)ccc2c(=O)c(-c3ccc(Cl)cc3Cl)coc12	inactive: 87%
Cc1noc(/C=C/c2cccs2)c1S(=O)(=O)N1CCC(C(=O)NCc2ccccc2Cl)CC1	inactive: 89%
CN(C)/C=C(\C#N)c1nc2ccccc2[nH]1	inactive: 103%
CCCCNC(=O)CCCn1c(=O)c2ccccc2n(CC(=O)Nc2ccccc2OCC)c1=O	inactive: 97%
CCOc1ccccc1NC(=O)c1ccc(F)c(S(=O)(=O)NCc2ccc3c(c2)OCO3)c1	inactive: 63%
COc1cc(/C=C(\C#N)c2nc3ccccc3[nH]2)ccc1OCc1cccc(C(F)(F)F)c1	inactive: 66%
CCCc1cnc2c(c1SCC(=O)Nc1ccc(C)c(Cl)c1)c(=O)n(C)c(=O)n2C	inactive: 73%
CCOC(=O)c1oc2c(c1C)/C(=N/OC(=O)c1ccccc1Cl)CCC2	inactive: 92%
CCOc1ccccc1NC(=O)N1CCc2c(sc(C)c2CC)C1c1ccccc1 (centres undefined)	inactive: 90%
COc1ccc(CNc2ncnc3onc(-c4ccc(F)cc4)c23)cc1	inactive: 80%
COCC(=O)N(Cc1cc2cc3c(cc2nc1Cl)OCO3)CC1CCCO1 (centres undefined)	inactive: 104%
O=C(CSc1oc(-c2ccccc2)nc1S(=O)(=O)c1ccc(Cl)cc1)c1ccccc1	inactive: 61%
Cc1ccc2c(=O)cc(C(=O)Nc3ccc(S(=O)(=O)Nc4onc(C)c4C)cc3)oc2c1C	inactive: 87%
COC(=O)C1C(=O)NC(S)=C(C#N)C1c1ccccc1Cl (centres undefined)	inactive: 101%
Cc1ccc(-n2cc(C(=O)Oc3ccc(F)cc3)c3ccccc3c2=O)cc1	inactive: 71%
O=C(CC1C(=O)N(c2ccc(F)cc2)C(=O)N1Cc1ccc2c(c1)OCO2)Nc1ccc(Cl)cc1 (centres undefined)	inactive: 59%
Cc1cc(C)nc(-n2nc(C)c3c2N(Cc2ccccc2)C(=O)CC3c2ccc(Cl)cc2)n1 (centres undefined)	inactive: 81%
CCOC(=O)Cc1c(C)nc2cc(C)nn2c1C	inactive: 106%
C=CCNC(=O)Cn1c(-c2ccc(F)cc2)nc2ccccc21	inactive: 97%
Cc1c(Cl)cccc1NS(=O)(=O)c1ccc(-c2cnc(C3CC3)o2)cc1	inactive: 135%
O=C(O)C1CCN(S(=O)(=O)c2cccc3nsnc23)CC1	inactive: 102%
Cc1oc(C(=O)O)cc1CN1CCCC1	inactive: 102%
CCN(C(=O)Cn1c(=O)n(-c2ccccc2)c(=O)c2ccc(C(=O)NCc3ccc4c(c3)OCO4)cc21)c1cccc(C)c1	inactive: 82%

SMILES	survival
O=C(CCn1c(=O)c2cccn2c2cccnc21)Nc1ccccc1C(F)(F)F	inactive: 86%
CCC(=O)N1c2ccccc2CC1C(=O)NCc1cc(OC)ccc1OC (centres undefined)	inactive: 76%
Cc1cc(C)cc(OCC(=O)Nc2c(C(=O)c3ccccc3)oc3ccccc23)c1	inactive: 78%
CCCCn1cnc2cc(NCc3ccc(OCC)cc3)ccc21	active: 4%
CC(C)c1ccc(NC(=O)c2cc(S(=O)(=O)N(C)C3CCCCC3)ccc2F)cc1	inactive: 47%
Cc1ccc(S(=O)(=O)N(CCC#N)Cc2ccccc2)cc1	inactive: 112%
CCOc1ccc(NC(=O)c2cc(S(=O)(=O)N3CCc4ccccc43)ccc2F)cc1	inactive: 79%
O=C(CCC(=O)c1ccc(F)cc1)Nc1ccc(Cl)cc1	inactive: 70%
COC(=O)c1sc2nc(C)cc(C)c2c1N	inactive: 103%
CCOC(=O)c1cc2c(ccn2C)n1Cc1ccc(OC(F)(F)F)cc1	inactive: 52%
CCOc1ccc(CNC(=O)C2CCCCN2S(=O)(=O)c2ccc(F)cc2)cc1OC (centres undefined)	inactive: 82%
CCn1cc(S(=O)(=O)c2cccc(C)c2)c(=O)c2cc(F)c(N3CCCC(C)C3)cc21 (centres undefined)	inactive: 66%
O=C(c1ccc2c(c1)N(Cc1ccccc1F)C(=O)c1ccccc1S2(=O)=O)N1CCN(c2ccccn2)CC1	inactive: 87%
COc1ccc(-c2nc3c(c(SC)n2)Cc2c(CO)cnc(C)c2O3)cc1	inactive: 84%
CCn1c(=O)c2cc(C(=O)NCCCN3CCN(C)CC3)sc2c2ccccc21	inactive: 124%
Cc1ccccc1NC(=O)c1c(C)oc2ccc(O)c(CN3CCOCC3)c12	inactive: 88%
O=C(CSc1n[nH]c(-c2ccccc2Cl)n1)NCc1ccc(F)cc1	active: -6%
Cc1ccc(Nc2c(-c3ccc(Br)o3)nc3ccccn23)cc1	inactive: 118%
COc1ccc(S(=O)(=O)NCc2nc3nc(C)cc(C)n3n2)cc1	inactive: 79%
NC(=O)c1c(NC(=O)CS(=O)(=O)c2ccc(Cl)cc2)sc2c1CCCCC2	inactive: 72%
CCC(=O)Oc1c(Sc2ccc(Cl)cc2)c(C)nn1-c1ccccc1	inactive: 25%
Cc1ccc(Cl)cc1N1CCN(C(=O)Cn2ncc3c4ccccc4n(C)c3c2=O)CC1	inactive: 67%
CCOc1ccc(NC(=O)CSC2=Nc3ccccc3C3=NC(CCC(=O)NCc4ccco4)C(=O)N23)cc1 (centres undefined)	inactive: 93%

SMILES	survival
O=C(NCCCN1CCN(c2cccc(Cl)c2)CC1)c1sc2ncccc2c1-n1cccc1	inactive: 79%
Cc1ccc(-c2nc(CS(=O)(=O)CC(=O)Nc3ccc(Br)cc3F)c(C)o2)cc1	inactive: 91%
Cc1ccc(-c2csc(-c3cc4c([nH]c3=O)CC(c3ccccc3)CC4=O)n2)cc1 (centres undefined)	inactive: 67%
Cc1cc(Cl)ccc1NS(=O)(=O)c1c(C(=O)N2CCC(C)CC2)c(C)n(C)c1C	active: 14%
O=C(Cn1c(-c2ccccc2)noc1=O)NCc1ccccc1	inactive: 117%
CC1CCCN(c2nc3c(-c4ccc(Cl)cc4)nnn3c3ccccc23)C1 (centres undefined)	inactive: 83%
CCN(CC)S(=O)(=O)c1ccc2c(c1)N(CC(=O)NCc1ccccc1)C(=O)C1CCCCN21 (centres undefined)	inactive: 102%
Cc1cc2c(cc1S(=O)(=O)Nc1ccc(OC(F)(F)F)cc1)OCC(=O)N2	inactive: 72%
COc1ccc2oc(=O)c(-c3nnc(-c4ccc(C)cc4)o3)cc2c1	inactive: 135%
Cc1ccc2ncc(C(=O)c3ccc(C)c(C)c3)c(S(=O)(=O)c3ccc(F)cc3)c2c1	inactive: 96%
CCOc1ccc(CC(=O)NCCc2sc3nc(-c4ccc(F)cc4)nn3c2C)cc1	inactive: 71%
O=C(NCCc1csc(-c2cccnc2)n1)c1cccc(Cl)c1	inactive: 53%
Cc1cc(SCC(N)=O)nc2ccccc12	inactive: 110%
CC(C)N(Cc1nc(-c2ccc(Cl)cc2)no1)C(=O)c1ccc(C(C)(C)C)cc1	active: 0%
Cc1ccccc1Cn1c(SCc2ccc(C(=O)NC3CCCCC3)cc2)nc2ccncc21	inactive: 92%
COc1ccc(C)cc1C(=O)CCC(=O)O	inactive: 115%
Cc1nc(SCc2cccc(Cl)c2)nc2c1CCCC2	active: -8%
CC(=O)N1c2ccc(S(=O)(=O)N3CCCCCC3)cc2CC1C(=O)NCc1cccc(C)c1 (centres undefined)	inactive: 92%
COc1cc(NC(=O)Cn2c(=O)cc(C)c3c(C)nn(-c4ccc(C)cc4)c32)cc(OC)c1	inactive: 113%
CCOc1ccc(-c2cc3nc(C4CCN(C(=O)OC(C)(C)C)CC4)c(C(=O)Nc4cccc(CC)c4)cn3n2)cc1	inactive: 72%
